In the supplement of paper PMC8728848:
Some of the results follow.

Key:
Assay in all cases: glycan array binding signal (z-score within array); higher = stronger binding
Conditions in all cases: glycan notation: IUPAC condensed, linker removed
[1] = molecular target: Glc(a1-6)Glc(a1-6)Glc(a1-6)Glc(a1-6)Glc(a1-6)Glc(a1-6)Glc(a1-6)Glc(a1-6)Glc(a1-6)Glc(a1-6)Glc
In short: (§1)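 The binding signal is a Z-score computed within each array and averaged over linkers. Arrays of the same protein sequence at different concentrations or buffers were also averaged together. Data originate from 3228 arrays in the Consortium for Functional Glycomics database, kept only where the protein sequence was available.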

[2] = molecular target: Glc(a1-6)Glc(a1-6)Glc(a1-6)Glc(a1-6)Glc(a1-6)Glc(a1-6)Glc(a1-6)Glc(a1-6)Glc(a1-6)Glc(a1-6)Glc(a1-6)Glc
In short: as §1

[3] = molecular target: Glc(a1-6)Glc(a1-6)Glc(a1-6)Glc(a1-6)Glc(a1-6)Glc(a1-6)Glc(a1-6)Glc(a1-6)Glc(a1-6)Glc(a1-6)Glc(a1-6)Glc(a1-6)Glc
In short: as §1

[4] = molecular target: Glc(b1-2)Glc
In short: as §1

[5] = molecular target: Glc(b1-2)Glc(b1-2)Glc
In short: as §1

[6] = molecular target: Glc(b1-2)Glc(b1-2)Glc(b1-2)Glc
In short: as §1

[7] = molecular target: Glc(b1-2)Glc(b1-2)Glc(b1-2)Glc(b1-2)Glc
In short: as §1

[8] = molecular target: Glc(b1-2)Glc(b1-2)Glc(b1-2)Glc(b1-2)Glc(b1-2)Glc
In short: as §1

[9] = molecular target: Glc(b1-2)Glc(b1-2)Glc(b1-2)Glc(b1-2)Glc(b1-2)Glc(b1-2)Glc
In short: as §1

[10] = molecular target: Glc(b1-2)Glc(b1-2)Glc(b1-2)Glc(b1-2)Glc(b1-2)Glc(b1-2)Glc(b1-2)Glc
In short: as §1

[11] = molecular target: Glc(b1-2)Glc(b1-2)Glc(b1-2)Glc(b1-2)Glc(b1-2)Glc(b1-2)Glc(b1-2)Glc(b1-2)Glc
In short: as §1

[12] = molecular target: Glc(b1-2)Glc(b1-2)Glc(b1-2)Glc(b1-2)Glc(b1-2)Glc(b1-2)Glc(b1-2)Glc(b1-2)Glc(b1-2)Glc
In short: as §1

[13] = molecular target: Glc(b1-2)Glc(b1-2)Glc(b1-2)Glc(b1-2)Glc(b1-2)Glc(b1-2)Glc(b1-2)Glc(b1-2)Glc(b1-2)Glc(b1-2)Glc
In short: as §1

[14] = molecular target: Glc(b1-2)Glc(b1-2)Glc(b1-2)Glc(b1-2)Glc(b1-2)Glc(b1-2)Glc(b1-2)Glc(b1-2)Glc(b1-2)Glc(b1-2)Glc(b1-2)Glc
In short: as §1

[15] = molecular target: Glc(b1-2)Glc(b1-2)Glc(b1-2)Glc(b1-2)Glc(b1-2)Glc(b1-2)Glc(b1-2)Glc(b1-2)Glc(b1-2)Glc(b1-2)Glc(b1-2)Glc(b1-2)Glc
In short: as §1

[16] = molecular target: Glc(b1-3)Glc
In short: as §1

[17] = molecular target: Glc(b1-3)Glc(b1-3)Glc
In short: as §1

[18] = molecular target: Glc(b1-3)Glc(b1-3)Glc(b1-3)Glc
In short: as §1

[19] = molecular target: Glc(b1-3)Glc(b1-3)Glc(b1-3)Glc(b1-3)Glc
In short: as §1

[20] = molecular target: Glc(b1-3)Glc(b1-3)Glc(b1-3)Glc(b1-3)Glc(b1-3)Glc
In short: as §1

[21] = molecular target: Glc(b1-3)Glc(b1-3)Glc(b1-3)Glc(b1-3)Glc(b1-3)Glc(b1-3)Glc
In short: as §1

[22] = molecular target: Glc(b1-3)Glc(b1-3)Glc(b1-3)Glc(b1-3)Glc(b1-3)Glc(b1-3)Glc(b1-3)Glc
In short: as §1

[23] = molecular target: Glc(b1-3)Glc(b1-3)Glc(b1-3)Glc(b1-3)Glc(b1-3)Glc(b1-3)Glc(b1-3)Glc(b1-3)Glc
In short: as §1

[24] = molecular target: Glc(b1-3)Glc(b1-3)Glc(b1-3)Glc(b1-3)Glc(b1-3)Glc(b1-3)Glc(b1-3)Glc(b1-3)Glc(b1-3)Glc
In short: as §1

[25] = molecular target: Glc(b1-3)Glc(b1-3)Glc(b1-3)Glc(b1-3)Glc(b1-3)Glc(b1-3)Glc(b1-3)Glc(b1-3)Glc(b1-3)Glc(b1-3)Glc
In short: as §1

[26] = molecular target: Glc(b1-3)Glc(b1-3)Glc(b1-3)Glc(b1-3)Glc(b1-3)Glc(b1-3)Glc(b1-3)Glc(b1-3)Glc(b1-3)Glc(b1-3)Glc(b1-3)Glc
In short: as §1

[27] = molecular target: Glc(b1-3)Glc(b1-3)Glc(b1-3)Glc(b1-3)Glc(b1-3)Glc(b1-3)Glc(b1-3)Glc(b1-3)Glc(b1-3)Glc(b1-3)Glc(b1-3)Glc(b1-3)Glc
In short: as §1

[28] = molecular target: Glc(b1-3)Glc(b1-3)Glc(b1-3)Glc(b1-3)Glc(b1-3)Glc(b1-3)Glc(b1-3)[Glc(b1-6)]Glc(b1-3)Glc
In short: as §1

[29] = molecular target: Glc(b1-3)Glc(b1-3)Glc(b1-3)Glc(b1-3)Glc(b1-3)Glc(b1-3)[Glc(b1-6)]Glc(b1-3)Glc(b1-3)Glc
In short: as §1

[30] = molecular target: Glc(b1-3)Glc(b1-3)Glc(b1-3)Glc(b1-3)[Glc(b1-6)]Glc(b1-3)Glc(b1-3)Glc(b1-3)Glc(b1-3)Glc
In short: as §1

[31] = molecular target: Glc(b1-3)Glc(b1-3)Glc(b1-3)[Glc(b1-6)]Glc(b1-3)Glc(b1-3)Glc(b1-3)Glc(b1-3)[Glc(b1-6)]Glc(b1-3)Glc
In short: as §1

[32] = molecular target: Glc(b1-3)Glc(b1-3)[Glc(b1-6)]Glc(b1-3)Glc(b1-3)Glc(b1-3)Glc(b1-3)Glc(b1-3)Glc(b1-3)Glc
In short: as §1

[33] = molecular target: Glc(b1-3)Glc(b1-4)Glc
In short: as §1

[34] = molecular target: Glc(b1-3)Glc(b1-4)Glc(b1-4)Glc
In short: as §1

[35] = molecular target: Glc(b1-3)Glc(b1-4)Glc(b1-6)Glc(b1-4)Glc
In short: as §1

[36] = molecular target: Glc(b1-3)[Glc(b1-6)]Glc(a1-3)Glc(b1-3)[Glc(b1-6)]Glc
In short: as §1

[37] = molecular target: Glc(b1-3)[Glc(b1-6)]Glc(b1-3)Glc(b1-3)Glc(b1-3)Glc(b1-3)Glc(b1-3)Glc(b1-3)Glc
In short: as §1

[38] = molecular target: Glc(b1-4)Glc
In short: as §1

[39] = molecular target: Glc(b1-4)Glc(b1-3)Glc
In short: as §1

[40] = molecular target: Glc(b1-4)Glc(b1-3)Glc(b1-4)Glc
In short: as §1

[41] = molecular target: Glc(b1-4)Glc(b1-4)Glc
In short: as §1

[42] = molecular target: Glc(b1-4)Glc(b1-4)Glc(b1-3)Glc
In short: as §1

[43] = molecular target: Glc(b1-4)Glc(b1-4)Glc(b1-3)Glc(b1-4)Glc(b1-4)Glc(b1-3)Glc
In short: as §1

[44] = molecular target: Glc(b1-4)Glc(b1-4)Glc(b1-4)Glc
In short: as §1

[45] = molecular target: Glc(b1-4)Glc(b1-4)Glc(b1-4)Glc(b1-3)Glc
In short: as §1

B1: Dectin-1 (Homo sapiens), Q9BXN2 (protein)
chain: TMAIWRSNSGSNTLENGYFLSRNKENHSQPTQSSLEDSVTPTKAVKTTGVLSSPCPPNWIIYEKSCYLFSMSLNSWDGSKRQCWQLGSNLLKIDSSNELGFIVKQVSSQPDNSFWIGLSRPQTEVPWLWEDGSTFSSNLFQIRTTATQENPSPNCVWIHVSVIYDQLCSVPSYSICEKKFSM
- glycan array binding signal (z-score) [1]: -0.145
- glycan array binding signal (z-score) [2]: -0.145
- glycan array binding signal (z-score) [3]: -0.145
- glycan array binding signal (z-score) [4]: -0.145
- glycan array binding signal (z-score) [5]: -0.145
- glycan array binding signal (z-score) [6]: -0.145
- glycan array binding signal (z-score) [7]: -0.145
- glycan array binding signal (z-score) [8]: -0.145
- glycan array binding signal (z-score) [9]: -0.145
- glycan array binding signal (z-score) [10]: -0.145
- glycan array binding signal (z-score) [11]: -0.145
- glycan array binding signal (z-score) [12]: -0.145
- glycan array binding signal (z-score) [13]: -0.145
- glycan array binding signal (z-score) [14]: -0.145
- glycan array binding signal (z-score) [15]: -0.145
- glycan array binding signal (z-score) [16]: -0.145
- glycan array binding signal (z-score) [17]: -0.145
- glycan array binding signal (z-score) [18]: -0.145
- glycan array binding signal (z-score) [19]: -0.145
- glycan array binding signal (z-score) [20]: -0.145
- glycan array binding signal (z-score) [21]: -0.145
- glycan array binding signal (z-score) [22]: -0.145
- glycan array binding signal (z-score) [23]: -0.145
- glycan array binding signal (z-score) [24]: -0.145
- glycan array binding signal (z-score) [25]: 0.976
- glycan array binding signal (z-score) [26]: 5
- glycan array binding signal (z-score) [27]: 9.53
- glycan array binding signal (z-score) [28]: -0.145
- glycan array binding signal (z-score) [29]: -0.145
- glycan array binding signal (z-score) [30]: -0.145
- glycan array binding signal (z-score) [31]: -0.145
- glycan array binding signal (z-score) [32]: -0.145
- glycan array binding signal (z-score) [33]: -0.145
- glycan array binding signal (z-score) [34]: -0.145
- glycan array binding signal (z-score) [35]: -0.145
- glycan array binding signal (z-score) [36]: -0.145
- glycan array binding signal (z-score) [37]: -0.145
- glycan array binding signal (z-score) [38]: -0.088
- glycan array binding signal (z-score) [39]: -0.145
- glycan array binding signal (z-score) [40]: -0.145
- glycan array binding signal (z-score) [41]: -0.145
- glycan array binding signal (z-score) [42]: -0.145
- glycan array binding signal (z-score) [43]: -0.145
- glycan array binding signal (z-score) [44]: -0.08
- glycan array binding signal (z-score) [45]: -0.145
